This is an account of results in PMC13083723 (Patterns, 2026).

The whole screen tested about 5,400 compounds, of which about 190 (3.5%) showed an effect of 50% or more. Some of the results follow. Residues, ends and D or L forms follow the SMILES beside them.

In this assay the test system is Vero-E6. Kind of assay: primary screen, phospholipidosis by LipidTOX staining; higher = more effect of the substance. To be noted: 10 µM. In short, it runs like this: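 Drug-induced phospholipidosis detected with HCS LipidTOX Red reagent in Vero-E6 cells. Compounds tested at 10 μM, with amiodarone (10 μM) as positive control and DMSO (0.1 v/v %) as vehicle.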
Turning to `Cc1coc2c1C(=O)C(=O)c1c-2ccc2c(C)cccc12`, the result_ITMP is recorded as -3.59%.
Regarding `O=C(O)[C@H]1C[C@@H](CP(=O)(O)O)CCN1`, the result_ITMP was -3.97%.
For `COc1ccccc1-c1c[nH]c2ncc(-c3cncc(C(=O)N(C)C)c3)cc12`, the result_ITMP was -2.09%.
As to `CCC1=C(C)CN(C(=O)NCCc2ccc(S(=O)(=O)NC(=O)N[C@H]3CC[C@H](C)CC3)cc2)C1=O`, the result_ITMP was found to be 7.17%.
Turning to `O=C(O)c1ccccc1-c1ccc(C(F)(F)F)cc1`, the result_ITMP was -4.47%.
Consider `Nc1ncnc2c1ncn2CCOCP(=O)(O)O`, for which the result_ITMP was -5.15%.
Consider `CNc1ccc([N+](=O)[O-])cc1-n1cnc(-c2ccc(C(F)(F)F)cc2)c1`, for which the result_ITMP came out at 3.84%.
In the case of `Cc1cc(C)c(NC(=O)C2CC3CCC2C3)c(C)c1` (stereo not drawn), the result_ITMP was -9.32%.
Then `CCOC(=O)[C@H](C)C[C@@H](Cc1ccc(-c2ccccc2)cc1)NC(=O)CCC(=O)[O-]`, with 0.47%.
Turning to `CC(C)(c1ccc(O)cc1)c1ccc(O)cc1`, the result_ITMP is -3.93%.
As for `N[C@@H](CC(=O)Nc1ccc(Oc2cc(F)c(F)cc2Br)cc1)C(=O)O`, the result_ITMP was -6.52%.
Then `CC1(C)NC(=O)N(c2ccc([N+](=O)[O-])c(C(F)(F)F)c2)C1=O`, with -1.03%; and `CN(C)Cc1ccc(-c2nc3cccc4c3n2CCNC4=O)cc1`, with 10.8%; and `O=C(/C=C\n1cnc(-c2cc(C(F)(F)F)cc(C(F)(F)F)c2)n1)NNc1cnccn1`, with 17.5%.
As for `CCCCCCc1ccc(O)cc1O`, the result_ITMP is -4.33%.
Then `Cc1[nH]c(/C=C2\C(=O)Nc3ccc(S(=O)(=O)N(C)c4cccc(Cl)c4)cc32)c(C)c1C(=O)N1CCN(C)CC1`, with 7.98%; and `CCCCC(CC)CNC(=N)NC(=N)NCCCCCCNC(=N)NC(=N)NCC(CC)CCCC` (stereo not drawn), with 46.9%.
On to `CCC(=O)OCC(=O)[C@@]1(OC(=O)CC)[C@@H](C)CC2C3CCC4=CC(=O)C=C[C@]4(C)C3(F)[C@@H](O)C[C@@]21C` (stereo partly drawn), for which the result_ITMP was -3.71%.
As for `COC(=O)[C@@H]1[C@H]2C[C@H]3c4[nH]c5ccccc5c4CCN3C[C@@H]2CC[C@@H]1O`, the result_ITMP worked out at 5.05%.
Then `CCC(C)n1ncn(-c2ccc(N3CCN(c4ccc(OC[C@H]5CO[C@](Cn6cncn6)(c6ccc(Cl)cc6Cl)O5)cc4)CC3)cc2)c1=O` (stereo partly drawn), with -3.48%.
Consider `CCOc1cc(/C=C2/C(=O)N(c3ccccc3)N=C2C)cc(Cl)c1OCC(=O)OC`, for which the result_ITMP is given as -2.3%.
Take `CN[C@H]1C[C@@H](N)[C@H](O)[C@@H](O[C@@H]2O[C@H](CO)[C@H](O)[C@@H]3OC4(O[C@H]23)O[C@H]([C@@H](N)CO)[C@H](O)[C@H](O)[C@H]4O)[C@@H]1O` (stereo partly drawn): the result_ITMP is -4.79%.
For the compound `COc1ccc(C(=O)C2CCN(CC(=O)N(Cc3nc4c(c(=O)[nH]3)COCC4)CC3CC3)CC2)cc1`, the result_ITMP turned out to be 0.39%.
Turning to `COC(=O)[C@H](Cc1cccc(C(=N)N)c1)[C@@H](C)NC(=O)c1ccc(-c2cc[n+]([O-])cc2)cc1`, the result_ITMP was 1.38%.
On to `Cc1nc(NC(=O)N2CCC[C@H]2C(N)=O)sc1-c1ccnc(C(C)(C)C(F)(F)F)c1`, for which the result_ITMP worked out at 7.72%.
As to `O=C(CCCCCCCn1cc(-c2cccnc2)nn1)Nc1ccccc1-c1ccccc1`, the result_ITMP was -1.05%.
Turning to `CCCCc1nc(C)c(CC(=S)N(C)C)c(=O)n1Cc1ccc(-c2ccccc2-c2nnn[nH]2)cc1`, the result_ITMP was determined as 0.5%.
For the compound `Nc1nncs1`, the result_ITMP is -3.67%.
Consider `CCC(=O)NC[C@H](Cc1ccc(OCCc2nc(-c3ccccc3)oc2C)cc1)N/C(C)=C\C(=O)c1ccc(C(F)(F)F)cc1`, for which the result_ITMP is given as -1.71%.
For the compound `C=C[C@@H]1C[C@]1(NC(=O)[C@@H]1C[C@@H](Oc2ncc(OC)c3ccc(Cl)cc23)CN1C(=O)[C@@H](NC(=O)OC(C)(C)C)C(C)(C)C)C(=O)NS(=O)(=O)C1CC1`, the result_ITMP is reported as -1.19%.
Turning to `Fc1cc(-c2cccc3ncc(-c4cnn(C5CCNCC5)c4)nc23)cc(F)c1CN1CCOCC1`, the result_ITMP amounted to 73.3%.
Then `Nc1cc(-c2ccncc2)c[nH]c1=O`, with -4.36%.
For `CCOC(=O)c1c(C)n(C)c2ccc(O)cc12`, the result_ITMP is -4.04%.
As for `c1ccc2c(c1)CCCc1cc(NCCN3CCOCC3)nnc1-2`, the result_ITMP was 1.05%.
Then `CC(N)C12CC3CC(CC(C3)C1)C2` (stereo not drawn), with -4.54%; and `N#Cc1ccc(Oc2ccc3c(c2)COB3O)cc1`, with -2.68%.
As to `O=C(NCC(=O)N1CCCC1)Nc1ccc2cnccc2c1`, the result_ITMP is reported as -2.35%.
With `O=C([O-])[C@H](CC(=O)N1C[C@H]2CCCC[C@H]2C1)Cc1ccccc1`, the result_ITMP was -4.71%.
In the case of `CC(=O)OCC(=O)[C@@]1(O)CCC2C3CCC4=CC(=O)CC[C@]4(C)C3[C@@H](O)C[C@@]21C` (stereo partly drawn), the result_ITMP was -4.93%.
For the compound `CN(CCOc1ccc(CC2SC(=O)NC2=O)cc1)c1ccccn1` (stereo not drawn), the result_ITMP is given as 0.43%.
On to `c1ccc2nc(C3=NCCN3)cnc2c1`, for which the result_ITMP is on record as -8.6%.
Turning to `CCOP(=S)(OCC)Oc1nc(Cl)c(Cl)cc1Cl`, the result_ITMP is reported as -6.6%.
As to `CN(C)c1ccc2c(c1)Sc1cc(N(C)C)ccc1N2`, the result_ITMP is -0.16%.
Then `CCOC(=O)c1ncn2c1CN(C)C(=O)c1cc(N=[N+]=[N-])ccc1-2`, with -4.86%; and `OC[C@H]1NC[C@@H](O)[C@@H](O)[C@@H]1O`, with -2.05%; and `COc1ccc(/C=C2\CCCN=C2c2cccnc2)c(OC)c1`, with 1.1%.
Regarding `CCCc1nc(C(C)(C)O)c(C(=O)O)n1Cc1ccc(-c2ccccc2-c2nnn[nH]2)cc1`, the result_ITMP is reported as -2.67%.
With `N[C@@H](Cc1ccc(O)cc1)C(=O)NCC(=O)NCC(=O)O` (H-Tyr-Gly-Gly-OH), the result_ITMP is reported as -2.1%.
Then `Cc1ccc2c(Cl)cc(Cl)c(O)c2n1`, with -4.16%; and `N#Cc1cc(F)cc(-c2nc(-c3ccc(F)cn3)no2)c1`, with -1.87%; and `N=C(N)N/N=C/c1c(Cl)cccc1Cl`, with 1.84%.
In the case of `CCC[C@@H]1CC2=CC(=O)CC[C@]2(C)[C@H]2CC[C@@]3(C)[C@@H](CC[C@@]3(O)CCC(=O)[O-])[C@H]12`, the result_ITMP was -2.26%.
On to `OC(CCN1CCCCC1)(c1ccccc1)C1CCCCC1` (stereo not drawn), for which the result_ITMP came out at 23.4%.
With `CC1(C)OC[C@H](NC(=O)Nc2ccc(Br)cc2Br)[C@H](c2ccccc2)O1`, the result_ITMP is given as 3.34%.
Take `Cc1ccc(O)c(/N=N/c2ccccc2)n1`: the result_ITMP is recorded as -1.01%.
In the case of `Cc1ccc2nc(N)nc(O)c2c1Sc1ccncc1`, the result_ITMP is on record as 3.27%.
Consider `CCC(=O)c1cc(-c2ccc(Cl)cc2)n(-c2ccc(S(N)(=O)=O)cc2)c1C`, for which the result_ITMP worked out at 2.2%.
On to `C[C@H](Oc1cc(-c2cnn(C3CCNCC3)c2)cnc1N)c1c(Cl)ccc(F)c1Cl`, for which the result_ITMP is 70.2%.
Take `CN(C)CCOC(=O)COc1ccc(Cl)cc1`: the result_ITMP is reported as -9.35%.
In the case of `CN1CC[C@@]2(C)c3cc(O)ccc3N(C)[C@H]12`, the result_ITMP is 24.8%.
Then `Brc1c(NC2=NCCN2)ccc2nccnc12`, with 0.37%; and `N[C@@H](CC(=O)NO)C(=O)O`, with -6.2%.
With `CC(=O)OCC(=O)[C@@]12OC(C)(C)O[C@@H]1CC1C3C[C@H](F)C4=CC(=O)C=C[C@]4(C)[C@@]3(F)[C@@H](O)C[C@@]12C` (stereo partly drawn), the result_ITMP is -3.35%.
Turning to `C#Cc1cnc(O)nc1O`, the result_ITMP is on record as -3.59%.
For the compound `COc1ccc(-c2cc(C(F)F)nn2-c2ccc(S(N)(=O)=O)cc2)cc1F`, the result_ITMP is -2.05%.
Take `CCCN1CCO[C@@H]2c3cc(O)ccc3OC[C@H]21`: the result_ITMP is listed as -3.86%.
Then `CC(O)COC[C@H]1OC2O[C@H]3[C@H](O)[C@@H](O)C(O[C@H]4[C@H](O)[C@@H](O)C(O[C@H]5[C@H](O)[C@@H](O)C(O[C@H]6[C@H](O)[C@@H](O)C(O[C@H]7[C@H](O)[C@@H](O)C(O[C@H]8[C@H](O)[C@@H](O)C(O[C@H]1[C@H](O)[C@H]2O)O[C@@H]8COCC(C)O)O[C@@H]7COCC(C)O)O[C@@H]6COCC(C)O)O[C@@H]5COCC(C)O)O[C@@H]4COCC(C)O)O[C@@H]3COCC(C)O` (stereo partly drawn), with -3.69%; and `O=C(O)CCc1cc(C(=O)c2ccc(OC3CCCC3)cc2O)ccc1OCc1ccc2c(O)noc2c1`, with 0.52%.
For the compound `CCCCC1OC(=O)c2ccccc21` (stereo not drawn), the result_ITMP is listed as 0.34%.
Then `O=C(O)c1cc(O)c2ccc(Cl)cc2n1`, with 0.78%; and `CCC[C@@H]1C[C@@H](C(=O)N[C@@H](C2O[C@H](SC)[C@H](O)[C@@H](O)[C@H]2O)[C@H](C)Cl)N(C)C1` (stereo partly drawn), with -0.24%; and `NC(=O)C1=CN([C@@H]2O[C@H](COP(=O)([O-])OP(=O)([O-])OC[C@H]3O[C@@H](n4cnc5c(N)ncnc54)[C@H](O)[C@@H]3O)[C@@H](O)[C@H]2O)C=CC1`, with -10.8%.
As to `CC(C)CN(C[C@@H](OP(=O)(O)O)[C@H](Cc1ccccc1)NC(=O)O[C@H]1CCOC1)S(=O)(=O)c1ccc(N)cc1`, the result_ITMP turned out to be 1.29%.
Consider `CC[C@@H](Nc1c(Nc2cccc(C(=O)N(C)C)c2O)c(=O)c1=O)c1ccc(C)o1`, for which the result_ITMP is reported as -0.76%.
Take `CCCCCCCCN=c1ccn(CCCCCCCCCCn2ccc(=NCCCCCCCC)cc2)cc1`: the result_ITMP is listed as 25.9%.
As to `CCCC[P+](CCCC)(CCCC)Cc1ccc(NC(=O)[C@H](Cc2ccc3ccccc3c2)N/C(=N/C2CCCCC2)NC2CCCCC2)cc1`, the result_ITMP worked out at 9.79%.
Take `COc1ccc(C(=O)NCc2ccc(OCCN(C)C)cc2)cc1OC`: the result_ITMP was 6.48%.
In the case of `N[C@@H](C(=O)N[C@@H]1C(=O)N2C(C(=O)O)=C(Cl)CS[C@H]12)c1ccccc1`, the result_ITMP is on record as -2.38%.
On to `CN1CCN(c2cccc3[nH]c(=O)oc23)CC1`, for which the result_ITMP is recorded as -1.83%.
Then `CCCCCCCCCCCCCCCC[n+]1ccccc1`, with -1.64%.
Consider `CCC(C)[C@H]1O[C@]2(CC[C@@H]1C)C[C@@H]1C[C@@H](C/C=C(\C)[C@@H](OC3C[C@H](OC)C(O[C@H]4C[C@H](OC)[C@@H](O)[C@H](C)O4)[C@H](C)O3)[C@@H](C)/C=C/C=C3\CO[C@@H]4[C@H](O)C(C)=C[C@@H](C(=O)O1)[C@]34O)O2` (stereo partly drawn), for which the result_ITMP is listed as -4.22%.
